Laboratory results reported in PubChem BioAssay AID2202238 (Ras Initiative Chemistry Research Team, Frederick National …, 2025).
The list shows a part of the results. Shown are side measurements of this screen, not its main read-out; they come without a call.

Target: GTPase KRas (Homo sapiens) (UniProt P01116)
Assay: Fragment capture on engineered cysteines, share of protein labelled (AID 2202238)
Set-up: protein at 5 µM with 500 µM competing thiol for 1.5 h
Settings: KRAS G12D cysteine mutants, disulfide tethering, MALDI-TOF labeling, stronger effect = higher value, fragment at 500 µM
[1] = measured here: G75C mutant labeling
[2] = measured here: H94C mutant labeling
[3] = measured here: I36C mutant labeling
[4] = measured here: L120C mutant labeling
[5] = measured here: M67C mutant labeling
[6] = measured here: M72C mutant labeling
[7] = measured here: N86C mutant labeling
[8] = measured here: P121C mutant labeling
[9] = measured here: S122C mutant labeling
[10] = measured here: S136C mutant labeling
[11] = measured here: G60C mutant labeling
[12] = measured here: N26C mutant labeling

Sequence of UniProt P01116 (P01116 whole entry, looked up, the tested form may be a part): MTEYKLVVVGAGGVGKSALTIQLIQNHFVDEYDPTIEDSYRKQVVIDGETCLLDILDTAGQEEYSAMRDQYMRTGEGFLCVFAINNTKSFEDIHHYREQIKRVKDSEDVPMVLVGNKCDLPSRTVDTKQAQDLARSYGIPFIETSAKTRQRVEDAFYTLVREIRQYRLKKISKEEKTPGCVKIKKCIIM

| SMILES | percent labeling [1] | percent labeling [2] | percent labeling [3] | percent labeling [4] | percent labeling [5] | percent labeling [6] | percent labeling [7] | percent labeling [8] | percent labeling [9] | percent labeling [10] | percent labeling [11] | percent labeling [12] |
| --- | --- | --- | --- | --- | --- | --- | --- | --- | --- | --- | --- | --- |
| CNC(=O)c1cc(Oc2cccc(NC(=O)CCS)c2)ccn1 | 11.1% | 22.2% | 23.2% | 17.1% | 18.7% | 40.1% | 12.5% | 17.5% | 10.9% | 26.7% | – | – |
| COc1ccc([C@@H]2C[C@H]2CC(=O)NCCS)cc1 | 11.1% | 17.4% | 12.2% | 23.3% | 17.3% | 22.7% | 6.5% | 16.7% | 9.8% | 21% | 39.2% | 27.7% |
| CC(C)(C)c1csc(CC2(O)CC3CCC(C2)N3C(=O)CCS)n1 (stereo unspecified) | 20.2% | 35% | 30.4% | 26.7% | 42.6% | 31.5% | 25.9% | 27.2% | 27.1% | 62.4% | – | – |
| CC(O)C(NC(=O)c1cc(Cl)ccc1Cl)C(=O)NCCS (stereo unspecified) | 4.6% | 29.6% | 21.9% | 44% | 29.5% | 19.6% | 20.9% | 23.7% | 29.7% | 37% | 39.9% | 32.2% |
| O=C(NCCS)c1cc(Oc2ccccc2)ccn1 | 16% | 16.1% | 7.7% | 24.3% | 13.5% | 49% | 11.8% | 15.4% | 9.6% | 21% | 23.4% | 24.6% |
| Nc1nc(C2CC2)nc(N2CCN(C(=O)CCS)CC2)n1 | 23.8% | 38.7% | 46.5% | 34.6% | 50.3% | 34.3% | 40.5% | 31.9% | 29.3% | 75.6% | – | – |
| N#CCCN(CC1CCN(Cc2ccccc2)CC1)C(=O)CCS | 14.5% | 33.1% | 52.6% | 25.1% | 67.4% | 26.3% | 33.1% | 28.1% | 29.5% | 57.2% | – | – |
| COc1ccc2c(c1)CCCC2C(=O)NCCS (stereo unspecified) | 16.5% | 32.2% | 18.6% | 33.9% | 25.3% | 24.2% | 20.7% | 21.3% | 21.9% | 39.5% | 49.4% | 37% |
| O=C(CCS)N1CCC(O)(Cn2ccnn2)CC1 | 6.8% | 25.2% | 35.2% | 31.6% | 36.4% | 13.3% | 23.9% | 33.3% | 31.1% | 44.4% | – | – |
| O=C(CCNC(=O)c1cnccn1)NCCS | 13.2% | 24.9% | 23.3% | 29.4% | 24.4% | 10.2% | 20.3% | 29.8% | 27.3% | 37% | 20.9% | 27% |
| O=C(CCCN1C(=O)CCc2ccccc21)NCCS | 24.5% | 39.2% | 30% | 49.6% | 46.7% | 54.6% | 28.8% | 39.4% | 36.8% | 62% | 52.6% | 44.3% |
| COc1ccc(C)cc1-n1cc(C(=O)NCCS)ccc1=O | 11.9% | 24.6% | 25.9% | 27.5% | 22.3% | 41.9% | 14.1% | 20.5% | 16.8% | 57% | 23.5% | 37.1% |
| O=C1CC(C(=O)NCCS)(c2ccccc2)CN1 (stereo unspecified) | 13.6% | 31.7% | 25.8% | 39.6% | 29.4% | 25% | 20.9% | 33.5% | 31.6% | 58.1% | 33.3% | 37.4% |
| Cn1cc(CCC(=O)NCCS)c2ccccc21 | 15.6% | 25.7% | 19.1% | 21.6% | 34.3% | 35.6% | 5.4% | 21.5% | 20.6% | 38.4% | 40.6% | 30.3% |
| O=C(CCS)NCCc1ccc2ncccc2c1 | 21.4% | 31.4% | 40.1% | 27.5% | 39.5% | 34.7% | 31.2% | 30% | 32% | 48.8% | – | – |
| O=C(NCCS)C1(c2ccccc2)CC2(CCC2)C1 | 11.9% | 12.7% | 11.9% | 20.1% | 12% | 22.6% | 8.1% | 13% | 12.3% | 29.2% | 36.4% | 25.6% |
| O=C(CCS)NCC1CCN(C(=O)c2ccccc2)CC1 | 13.8% | 36.8% | 51.1% | 32% | 60.1% | 30.3% | 26.8% | 36.2% | 39.6% | 54.3% | – | – |
| CC(Cn1cccn1)(NC(=O)CCS)C(N)=O (stereo unspecified) | 0% | 29.1% | 44.7% | 28.3% | 26.1% | 14% | 22.2% | 30.2% | 31.5% | 44.6% | – | – |
| O=C(CCS)NCc1cccc(-c2ccccn2)c1 | 19% | 33.5% | 47.2% | 24.1% | 46% | 44.2% | 26% | 33.3% | 25.4% | 53.6% | – | – |
| O=C(CCS)N1CCC(Oc2ccccc2Cl)CC1 | 31.5% | 27.8% | 21.5% | 19.6% | 68.9% | 36.6% | 21.4% | 22.4% | 17.4% | 42.8% | – | – |
| Cc1c(C(=O)NCCS)ccc2c1OC(F)(F)O2 | 11.3% | 18.9% | 15.5% | 18.3% | 13.7% | 51.3% | 14.7% | 23% | 15.4% | 22.6% | 50.4% | 35.6% |
| Cc1nc(-c2c[nH]c(C(=O)NCCS)c2)cs1 | 18.8% | 23% | 27.8% | 26.4% | 20.5% | 56.4% | 18.1% | 19.7% | 17.8% | 33.6% | 31.1% | 49.9% |
| O=C(NCCS)[C@@H]1OCC[C@@H]1Cn1cccn1 | 8.7% | 22.8% | 16.3% | 38.8% | 25.3% | 13.2% | 19.6% | 27% | 28% | 46.8% | 21% | 28.4% |
